Assay [1] has as its target T1, PfYdj1 fused to the GAL4 DNA-binding domain (bait, pGBDUC1/PfYdj1) (Plasmodium falciparum 3D7) (UniProt Q8IL88).
T1 sequence: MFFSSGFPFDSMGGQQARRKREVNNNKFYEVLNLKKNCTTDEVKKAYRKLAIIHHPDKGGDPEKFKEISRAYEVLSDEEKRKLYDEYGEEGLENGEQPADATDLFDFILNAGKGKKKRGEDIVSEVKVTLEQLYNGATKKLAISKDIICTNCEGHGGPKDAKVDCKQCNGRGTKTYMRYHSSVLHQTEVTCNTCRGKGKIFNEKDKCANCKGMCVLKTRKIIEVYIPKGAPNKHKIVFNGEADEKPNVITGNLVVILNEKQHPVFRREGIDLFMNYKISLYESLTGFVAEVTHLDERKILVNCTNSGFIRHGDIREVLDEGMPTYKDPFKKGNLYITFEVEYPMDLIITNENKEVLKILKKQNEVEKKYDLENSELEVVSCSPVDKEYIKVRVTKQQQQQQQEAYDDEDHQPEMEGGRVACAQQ
The assay is described as follows: condition: only with 116-9e in the triple drop out plates; two-hybrid; as a1, but on triple drop out plates containing 116-9e.

Amino acid sequences for entries named in this document (tags omitted).
UniProt Q8IB24: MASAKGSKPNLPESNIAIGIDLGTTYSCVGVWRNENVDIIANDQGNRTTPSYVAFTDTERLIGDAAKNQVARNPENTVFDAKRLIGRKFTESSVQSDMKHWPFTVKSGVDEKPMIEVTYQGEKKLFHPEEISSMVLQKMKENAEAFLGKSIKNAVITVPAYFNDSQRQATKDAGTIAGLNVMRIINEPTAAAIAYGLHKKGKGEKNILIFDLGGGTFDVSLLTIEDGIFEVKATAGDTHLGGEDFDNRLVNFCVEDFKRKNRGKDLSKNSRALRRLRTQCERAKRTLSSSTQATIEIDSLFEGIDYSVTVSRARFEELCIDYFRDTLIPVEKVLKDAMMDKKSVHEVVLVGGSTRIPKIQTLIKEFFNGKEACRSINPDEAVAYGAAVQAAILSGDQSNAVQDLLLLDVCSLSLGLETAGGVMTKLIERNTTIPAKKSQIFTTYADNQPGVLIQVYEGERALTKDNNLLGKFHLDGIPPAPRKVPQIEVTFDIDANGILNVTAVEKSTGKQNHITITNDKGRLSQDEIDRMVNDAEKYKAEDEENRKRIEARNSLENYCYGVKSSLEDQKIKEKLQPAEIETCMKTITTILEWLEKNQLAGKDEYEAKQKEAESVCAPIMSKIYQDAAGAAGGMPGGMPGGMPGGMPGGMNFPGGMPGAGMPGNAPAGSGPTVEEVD

For assay [2], the target named is T1, PfYdj1 fused to the GAL4 DNA-binding domain (bait, pGBDUC1/PfYdj1) (Plasmodium falciparum 3D7). The assay is described as follows: two-hybrid; bait as GAL4 DNA-binding domain fusion (pGBDUC1), prey as GAL4 activation domain fusion (pGADC1), S. cerevisiae PJ69-4A, HIS3 reporter, growth on SC-Leu-Ura-His plates, 30°C, 4 days.
The target in assay [3] is T2, His-tagged PfYdj1 (recombinant, purified) (Plasmodium falciparum 3D7) (UniProt Q8IL88).
T2 sequence: T1 sequence
The assay is described as follows: pull-down; reverse co-purification: purified His-tagged PfYdj1 or Pfydj1^D57N immobilised on Ni-NTA beads, incubated with P. falciparum trophozoite lysate; western blot; only the target purified. (In general: In western blotting, separated proteins are transferred to a membrane and probed.)

In assay [4] the target is T3, His-tagged full length PfR2 (recombinant, purified) (Plasmodium falciparum 3D7) (UniProt P50650).
T3 sequence: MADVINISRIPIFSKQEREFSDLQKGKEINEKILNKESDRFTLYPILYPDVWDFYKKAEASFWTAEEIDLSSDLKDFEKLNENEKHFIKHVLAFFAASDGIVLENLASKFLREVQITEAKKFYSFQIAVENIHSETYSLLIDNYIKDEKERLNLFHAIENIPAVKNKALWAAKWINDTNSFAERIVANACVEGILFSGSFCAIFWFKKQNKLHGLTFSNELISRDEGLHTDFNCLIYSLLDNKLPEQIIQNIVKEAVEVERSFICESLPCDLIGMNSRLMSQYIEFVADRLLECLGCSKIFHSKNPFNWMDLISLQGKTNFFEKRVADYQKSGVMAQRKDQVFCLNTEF
The assay is described as follows: pull-down; purified His-tagged PfR2 (10 µg) immobilised on Ni-NTA agarose beads, incubated with 200 µg P. falciparum trophozoite lysate (untreated parasites, or parasites grown with 50 µM 116-9e for 24 h) in 20 mM phosphate pH 7.5, 300 mM NaCl, 0.5% NP-40, 4°C overnight; western blot; only the target purified.

Assay [5] concerns the target T4, PfSis1 fused to the GAL4 DNA-binding domain (bait, pGBDUC1/PfSis1) (Plasmodium falciparum 3D7) (UniProt O96212).
T4 sequence: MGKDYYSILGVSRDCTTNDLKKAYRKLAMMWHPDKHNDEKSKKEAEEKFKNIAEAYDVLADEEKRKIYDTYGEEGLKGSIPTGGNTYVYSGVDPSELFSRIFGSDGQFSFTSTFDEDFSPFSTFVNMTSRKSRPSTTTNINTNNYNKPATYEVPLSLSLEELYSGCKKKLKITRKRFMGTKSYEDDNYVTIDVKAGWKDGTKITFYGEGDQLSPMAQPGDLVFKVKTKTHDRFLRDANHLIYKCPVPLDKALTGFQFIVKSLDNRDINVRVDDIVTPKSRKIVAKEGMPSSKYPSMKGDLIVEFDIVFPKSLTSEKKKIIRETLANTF
Briefly: two-hybrid; bait as GAL4 DNA-binding domain fusion (pGBDUC1), prey as GAL4 activation domain fusion (pGADC1), S. cerevisiae PJ69-4A, HIS3 reporter, growth on SC-Leu-Ura-His plates, 30°C, 4 days.

The target of assay [6] is T1, PfYdj1 fused to the GAL4 DNA-binding domain (bait, pGBDUC1/PfYdj1) (Plasmodium falciparum 3D7). Described as above. The source holds these as a separate data set.
Assay [7] deals with T2, His-tagged PfYdj1 (recombinant, purified) (Plasmodium falciparum 3D7). The assay is described as follows: pull-down; reverse co-purification: purified His-tagged PfYdj1 or Pfydj1^D57N immobilised on Ni-NTA beads, incubated with P. falciparum trophozoite lysate; western blot; only the target purified. This is another data set of the same source.

Read-outs that look alike come from different tables or passages of the source. No constants are given. Whether binding was seen depends on the method and setting. For part of these data: Binding seen in cells or lysates may run through a third protein. Some results given as binding are weak or reduced against the parent protein; the word gives no strength. Tags and fused reporters may be left off the sequences shown.

Consider “PfHsp70-1 fused to the GAL4 activation domain (prey, pGADC1/PfHsp70) (from UniProt Q8IB24 1-677)”, for which the binding entry in assay [1] is listed as “no binding”; in assay [2], “binds”. As for “PfHsp70-1 of the parasite (endogenous) (from UniProt Q8IB24 1-677)”, the binding result in assay [3] and in assay [4] was “binds” throughout.

B1: PfR2 fused to the GAL4 activation domain (prey, pGADC1/PfR2) (protein, UniProt P50650 1-349)
chain: T3 sequence
Consider B1, for which the binding result is given as “no binding” in assay [5] and “binds” in assay [6].

B2: PfR2 of the parasite (endogenous) (protein, UniProt P50650 1-349)
chain: T3 sequence
As to B2, in assay [7], the binding result is reported as “binds”.

B3: PfSis1 of the parasite (endogenous) (protein, UniProt O96212 1-328)
chain: T4 sequence
Turning to B3, in assay [4], the binding result is listed as “no binding”.

B4: PfYdj1 of the parasite (endogenous) (protein, UniProt Q8IL88 1-424)
chain: T1 sequence
In the case of B4, the binding result in assay [4] is given as “binds”.

These data come from PMC12505967, “Inhibition of the assembly of Plasmodium Hsp70-1 and Hsp40 complex blocks DNA replication by destabilizing ribonucleotide reductase subunit-2” (mBio, 2025).
